# In the supplement of paper PMC4166925:
# ± gives the standard deviation of the averaged measurements. In all, about 33,000 sequences were measured (“E-score (dimensionless, -0.5 to 0.5)”: median about -0.049, highest 2% from about 0.37 on). The list shows a part of the results.
# System: T1, PmTbr T-box DNA-binding domain (GST fusion)
# T1 sequence: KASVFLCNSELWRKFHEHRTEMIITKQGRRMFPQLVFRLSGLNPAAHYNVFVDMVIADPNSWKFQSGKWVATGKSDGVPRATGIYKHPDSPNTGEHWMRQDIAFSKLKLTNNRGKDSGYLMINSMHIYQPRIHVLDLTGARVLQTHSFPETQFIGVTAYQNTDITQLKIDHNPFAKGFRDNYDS
# Experiment: PBM E-score of 8-mer (E-score (dimensionless, -0.5 to 0.5)); Tbr is Tbrain of the sea star Patiria miniata (Pm) or the sea urchin Strongylocentrotus purpuratus (Sp); higher = stronger binding preference; most listed sequences are background and not binding sites
# Details: the construct has about 5 more residues each side
# How it was run: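 Primer extension turned Universal Agilent oligonucleotide arrays double-stranded. They were incubated with 200 nM protein in PBS (pH 7.5); the protein was a GST-fused Tbr T-box DNA-binding domain expressed in BL21 E. coli at 20 °C and purified on glutathione. Every ungapped 8-mer was scored from the scanned, quantified probe intensities, and the Universal PBM Analysis Suite gave each an enrichment E-score averaged over duplicate arrays.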
row,Sequence,PBM E-score of 8-mer
1,AAACCCAT,-0.0287 ± 0.018
2,ATGATGGG,-0.0981 ± 0.046
3,GCGTCAAC,0.318 ± 0.012
4,CACTAAGC,0.144 ± 0.036
5,AGCTTGAT,-0.0282 ± 0.019
6,ATAGCAAG,0.0935 ± 0.033
7,CACGCAAG,0.192 ± 0.032
8,ACTGCACC,-0.0766 ± 0.0028
9,GTTAGTCA,0.143 ± 0.043
10,CGGGGACA,-0.0573 ± 0.041
11,CGAGGAGA,-0.139 ± 0.016
12,ACAGCGCG,0.258 ± 0.0087
13,ATCTGTGC,-0.142 ± 0.022
14,AGGAAGTC,-0.0733 ± 0.043
15,AAGGCAAG,0.0215 ± 0.051
16,AGTAATGA,-0.0763 ± 0.031
17,CGCGCCTC,0.3603 ± 0.00025
18,GCCCGACC,-0.105 ± 0.095
19,AGTAGATA,-0.329 ± 0.051
20,AAGTCAGT,-0.245 ± 0.03
21,AGTTGCCC,-0.177 ± 0.09
22,GGGAAAAA,-0.042 ± 0.0054
23,AGCCCACC,-0.301 ± 0.011
24,ACATTGAT,0.12 ± 0.068
25,GAGGGCGA,0.00116 ± 0.053

row,Sequence,PBM E-score of 8-mer
1,CTGATTCC,-0.251 ± 0.0026
2,CAGAGGTC,-0.0549 ± 0.0023
3,CACGCCAC,0.222 ± 0.04
4,AAGCACGA,-0.11 ± 0.07
5,AAAACAAA,-0.134 ± 0.11
6,CGTCACGC,0.296 ± 0.0071
7,CCCGATCC,-0.197 ± 0.01
8,GCATTTAC,0.0608 ± 0.032
9,AATAGTTG,0.0382 ± 0.051
10,ACACCAAA,0.319 ± 0.013
11,GCTGGAAC,-0.0508 ± 0.046
12,GCACGTGC,0.2695 ± 0.0011
13,CGGATTCC,-0.04442 ± 0.00012
14,AGGTAACC,-0.159 ± 0.038
15,ATCTTTGA,-0.153 ± 0.033
16,GCCGACAA,0.116 ± 0.04
17,AAGCCCGT,-0.241 ± 0.034
18,CTTCAGCA,0.044 ± 0.011
19,AAGACTAG,-0.115 ± 0.024
20,GTCTTGAA,-0.104 ± 0.061
21,TAAAAACA,0.0432 ± 0.083
22,ACCCGATG,0.0862 ± 0.066
23,GCACAGCC,-0.192 ± 0.031
24,CCAAACGC,-0.00129 ± 0.091
25,TGGGTAAA,-0.193 ± 0.0075

row,Sequence,PBM E-score of 8-mer
1,ACGTTGTG,0.2261 ± 0.00085
2,CGGCGACA,0.273 ± 0.051
3,AATGGGAG,-0.17 ± 0.027
4,GACTCCGA,-0.194 ± 0.0059
5,GAGAAATC,0.0536 ± 0.11
6,ACGTCTCC,-0.136 ± 0.022
7,AATAAACA,0.148 ± 0.041
8,AGGTGGGA,0.418 ± 0.01
9,ACCGCTGA,-0.11 ± 0.026
10,GGCATATA,-0.256 ± 0.055
11,GTTCCAAA,-0.156 ± 0.071
12,CTAGGGTA,-0.328 ± 0.063
13,ACCTCGAC,0.216 ± 0.043
14,AATAGCAG,0.0584 ± 0.0017
15,AATCGGTG,-0.0247 ± 0.033
16,ATTCTATC,-0.144 ± 0.022
17,AGGACACC,0.345 ± 0.027
18,GATCATGC,-0.0264 ± 0.02
19,AGCCGGTG,0.0219 ± 0.0037
20,ATCCTACC,-0.13 ± 0.02
21,CTCGCAGA,0.00155 ± 0.054
22,ACGTCCAT,-0.04106 ± 4.2e-05
23,GAGGGTAC,-0.11 ± 0.064
24,AGGTGATC,0.219 ± 0.0025
25,GGAATTGA,-0.13189 ± 9.9e-05

row,Sequence,PBM E-score of 8-mer
1,ACTAATGA,-0.144 ± 0.13
2,GGGTTACA,-0.179 ± 0.0048
3,ACGTATTA,-0.0687 ± 0.0068
4,CACTCGTA,0.0795 ± 0.0099
5,TCCGCTCA,-0.184 ± 0.04
6,ATTGAAAC,-0.158 ± 0.087
7,GCACCTTA,0.4187 ± 0.0021
8,CAGGATTC,-0.0235 ± 0.064
9,CGATCACG,0.168 ± 0.025
10,CGGCCACG,0.0073 ± 0.043
11,CGCGAAGC,0.2393 ± 0.0015
12,ACAGTCTC,0.0743 ± 0.035
13,AGCGCAGG,-0.163 ± 0.13
14,ACTTAGAG,-0.0215 ± 0.051
15,CGGACTAC,-0.213 ± 0.016
16,CAGCAGGC,-0.125 ± 0.0037
17,GTAGTCGA,-0.0608 ± 0.0079
18,AGTACATG,-0.133 ± 0.045
19,ACCTGACA,0.29667 ± 0.00013
20,GGGTGTAC,-0.0259 ± 0.052
21,ATTACTGG,-0.132 ± 0.041
22,ACTATGTG,0.102 ± 0.042
23,CCCAGTCA,-0.262 ± 0.073
24,CCGGATCC,-0.271 ± 0.066
25,ACTTCCGG,-0.0692 ± 0.034

row,Sequence,PBM E-score of 8-mer
1,CAGCGGTC,-0.115 ± 0.056
2,ACCTGAAA,0.023 ± 0.055
3,AAGGGAGC,0.123 ± 0.0022
4,GATAAAGC,0.0553 ± 0.011
5,AAGCATGT,-0.0455 ± 0.031
6,CCGTCTGC,0.141 ± 0.028
7,AGCCAAAT,0.00634 ± 0.039
8,AAATGTCG,0.0404 ± 0.0069
9,ACAACGAG,0.0277 ± 0.0065
10,ATGCGGTA,-0.121 ± 0.02
11,TATTACAA,0.0194 ± 0.0049
12,AATCTCAT,-0.0261 ± 0.042
13,CTAGGGGA,-0.189 ± 0.022
14,CAGTCACA,0.339 ± 0.016
15,CTGGTGTC,0.341 ± 0.023
16,CACAATCC,-0.0177 ± 0.053
17,AAGGAGCA,-0.28 ± 0.022
18,CTCGACAG,0.244 ± 0.018
19,ACTCACGA,0.144 ± 0.023
20,ATTTTTAG,-0.0822 ± 0.052
21,CGGAAAGA,-0.139 ± 0.012
22,GAGCTGCC,0.123 ± 0.0068
23,CCAAACTA,-0.138 ± 0.047
24,AACGAACT,0.0659 ± 0.024
25,TCGTCGCA,0.102 ± 0.051

row,Sequence,PBM E-score of 8-mer
1,GACACTGC,0.2169 ± 0.0019
2,CCATAACC,0.0419 ± 0.054
3,ATGAGGCG,0.184 ± 0.042
4,ATCGGTTG,0.0656 ± 0.046
5,ACGATAGT,-0.0352 ± 0.053
6,CTGGGGGC,-0.275 ± 0.0059
7,AGCAATGA,0.00566 ± 0.013
8,GGAGTTCA,-0.0635 ± 0.036
9,TGATCACA,0.20944 ± 9.2e-05
10,AGCAACGG,-0.163 ± 0.049
11,CGAATTCA,-0.0114 ± 0.029
12,CCTACGTA,-0.197 ± 0.035
13,AAATGGCG,0.0605 ± 0.034
14,CTGGATCA,-0.111 ± 0.0046
15,CGGCAATA,-0.0175 ± 0.065
16,TAGAACTA,-0.0862 ± 0.013
17,AGCCAGGC,-0.216 ± 0.046
18,CAGTTCCG,-0.0851 ± 0.031
19,AAATTTGG,-0.185 ± 0.14
20,ATAAGCGC,0.218 ± 0.0082
21,ATGAGTCC,-0.202 ± 0.0074
22,AGAGCCAT,-0.163 ± 0.06
23,GCCAGTCC,-0.117 ± 0.051
24,AGACCCCG,-0.0473 ± 0.033
25,CTGCACTC,-0.0897 ± 0.008

row,Sequence,PBM E-score of 8-mer
1,GACAAAGC,0.0872 ± 0.0053
2,AATGAGGG,-0.21 ± 0.035
3,CTTGCACA,0.148 ± 0.026
4,CCCACGTC,-0.0655 ± 0.019
5,CGCGGCAG,0.0429 ± 0.039
6,ACTGTTTC,-0.0724 ± 0.082
7,AGCCCGAC,-0.126 ± 0.05
8,ACCTATCT,0.15 ± 0.034
9,GATCGAGC,-0.253 ± 0.065
10,GACCCCTA,-0.11 ± 0.035
11,TATCGATA,-0.108 ± 0.068
12,ACCTGGAT,0.026 ± 0.0051
13,AGCCTAAG,-0.108 ± 0.041
14,ACGCGTAT,0.147 ± 0.035
15,GGAGTAGA,-0.154 ± 0.034
16,GTTGTCTA,-0.1018 ± 0.00021
17,ATCGACAG,0.236 ± 0.032
18,CACACAGA,-0.0151 ± 0.021
19,AACCTATA,-0.0111 ± 0.13
20,AGCTGGTC,-0.199 ± 0.037
21,CGTCTAAG,-0.0183 ± 0.056
22,CCAAGACG,-0.0419 ± 0.0058
